Lines with a small IC50 respond at low doses; a fit beyond the top or the lowest dose is shown as a bound at that dose. The AUC spans the tested range (256-fold, ending at the top dose) of the same fit; the more sensitive the line, the further below 1. For part of these data: Any top dose called inferred is not printed in the source and was worked back from the curve model.
Key:
Test in all cases: Viability of human cancer cell lines after 72 h of drug (GDSC screen)
QL-XI-92 = compound: C=CC(=O)Nc1cc(NC(=O)c2ccc(C)c(NC(=O)c3ccno3)c2)cc(C(F)(F)F)c1 [QL-XI-92]; settings: top dose 10.24 µM; top dose inferred
Method: (§1)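 Human cancer cell lines in 384-well plates, medium with 10% serum, drug for 72 h over a 256-fold dose range (nine 2-fold or five 4-fold steps up to the top dose). Adherent lines were fixed and stained with the nucleic acid dye Syto60, suspension lines read with resazurin; signal relative to control wells, capped at 0 and 100%. One two-parameter sigmoid per drug and line, fitted in a mixed model over all curves with the slope shared within a line.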

WHI-P97 = compound: COc1cc2ncnc(Nc3cc(Br)c(O)c(Br)c3)c2cc1OC [WHI-P97]; settings: top dose 10.24 µM; top dose inferred
Method: as §1

EHT 1864 = compound: O=c1cc(CN2CCOCC2)occ1OCCCCCSc1ccnc2cc(C(F)(F)F)ccc12 [EHT 1864]; settings: top dose 10 µM; top dose inferred
Method: as §1

AG-014699 = compound: CNCc1ccc(-c2[nH]c3cc(F)cc4c3c2CCNC4=O)cc1 [AG-014699]; settings: top dose 5 µM; top dose inferred
Method: as §1

Vinorelbine = compound: CCC1=C[C@@H]2CN(C1)Cc1c([nH]c3ccccc13)[C@@](C(=O)OC)(c1cc3c(cc1OC)N(C)[C@H]1[C@@](O)(C(=O)OC)[C@H](OC(C)=O)[C@]4(CC)C=CCN5CC[C@]31[C@@H]54)C2 [Vinorelbine]; settings: top dose 0.064 µM; top dose inferred
Method: as §1

Phenformin = compound: N=C(N)NC(=N)NCCc1ccccc1 [Phenformin]; settings: top dose 4000 µM; top dose inferred
Method: as §1

S-Trityl-L-cysteine = compound: N[C@@H](CSC(c1ccccc1)(c1ccccc1)c1ccccc1)C(=O)O [S-Trityl-L-cysteine]; settings: top dose 5.12 µM; top dose inferred
Method: as §1

XL-184 = compound: COc1cc2nccc(Oc3ccc(NC(=O)C4(C(=O)Nc5ccc(F)cc5)CC4)cc3)c2cc1OC [XL-184]; settings: top dose 5.12 µM; top dose inferred
Method: as §1

Gefitinib = compound: COc1cc2ncnc(Nc3ccc(F)c(Cl)c3)c2cc1OCCCN1CCOCC1 [Gefitinib]; settings: top dose 0.5 µM
Method: as §1

NU-7441 = compound: O=c1cc(N2CCOCC2)oc2c(-c3cccc4c3sc3ccccc34)cccc12 [NU-7441]; settings: top dose 2 µM; top dose inferred
Method: as §1

For NMC-G1 (glioma, adherent), the AUC (QL-XI-92) was 0.919, the IC50 (QL-XI-92) was greater than 10.2 µM and the AUC (WHI-P97) was 0.977. It also gave an IC50 (WHI-P97) greater than 10.2 µM, an AUC (EHT 1864) of 0.978 and an IC50 (EHT 1864) greater than 10 µM. The AUC (AG-014699) was 0.909, the IC50 (AG-014699) was greater than 5 µM and the AUC (Vinorelbine) was 0.701. For the same cell line, the IC50 (Vinorelbine) was 0.017 µM, the AUC (Phenformin) was 0.817 and the IC50 (Phenformin) was 2900 µM. It also gave an AUC (S-Trityl-L-cysteine) of 0.805, an IC50 (S-Trityl-L-cysteine) of 3.31 µM and an AUC (XL-184) of 0.863. For the same cell line, the IC50 (XL-184) was greater than 5.12 µM, the AUC (Gefitinib) was 0.975 and the IC50 (Gefitinib) was greater than 0.5 µM. The AUC (NU-7441) was 0.965 and the IC50 (NU-7441) was greater than 2 µM.

NOS-1 (osteosarcoma, adherent) gave an AUC (QL-XI-92) of 0.827, an IC50 (QL-XI-92) of 8.31 µM and an AUC (WHI-P97) of 0.952. For the same cell line, the IC50 (WHI-P97) was greater than 10.2 µM, the AUC (EHT 1864) was 0.899 and the IC50 (EHT 1864) was greater than 10 µM. The AUC (AG-014699) was 0.96, the IC50 (AG-014699) was greater than 5 µM and the AUC (Vinorelbine) was 0.787. It also gave an IC50 (Vinorelbine) of 0.0351 µM, an AUC (Phenformin) of 0.697 and an IC50 (Phenformin) of 1030 µM. For the same cell line, the AUC (S-Trityl-L-cysteine) was 0.7, the IC50 (S-Trityl-L-cysteine) was 1.34 µM and the AUC (XL-184) was 0.547. The IC50 (XL-184) was 0.442 µM, the AUC (Gefitinib) was 0.96 and the IC50 (Gefitinib) was greater than 0.5 µM. It also gave an AUC (NU-7441) of 0.916 and an IC50 (NU-7441) greater than 2 µM.

With “OCI-AML5 (acute myeloid leukaemia, suspension)” the AUC (QL-XI-92) was 0.72, the IC50 (QL-XI-92) was 2.52 µM and the AUC (WHI-P97) was 0.945. It also gave an IC50 (WHI-P97) greater than 10.2 µM, an AUC (EHT 1864) of 0.979 and an IC50 (EHT 1864) greater than 10 µM. The AUC (AG-014699) was 0.989, the IC50 (AG-014699) was greater than 5 µM and the AUC (Vinorelbine) was 0.644. The IC50 (Vinorelbine) was 0.00961 µM, the AUC (Phenformin) was 0.654 and the IC50 (Phenformin) was 641 µM. The AUC (S-Trityl-L-cysteine) was 0.677, the IC50 (S-Trityl-L-cysteine) was 0.948 µM and the AUC (XL-184) was 0.549. The IC50 (XL-184) was 0.431 µM, the AUC (Gefitinib) was 0.988 and the IC50 (Gefitinib) was greater than 0.5 µM. For the same cell line, the AUC (NU-7441) was 0.981 and the IC50 (NU-7441) was greater than 2 µM.

For OCI-LY-19 (B-cell lymphoma, suspension), the AUC (QL-XI-92) was 0.825, the IC50 (QL-XI-92) was 5.52 µM and the AUC (WHI-P97) was 0.813. The IC50 (WHI-P97) was 4.99 µM, the AUC (EHT 1864) was 0.969 and the IC50 (EHT 1864) was greater than 10 µM. It also gave an AUC (AG-014699) of 0.944, an IC50 (AG-014699) greater than 5 µM and an AUC (Vinorelbine) of 0.39. For the same cell line, the IC50 (Vinorelbine) was 0.00204 µM, the AUC (Phenformin) was 0.391 and the IC50 (Phenformin) was 129 µM. For the same cell line, the AUC (S-Trityl-L-cysteine) was 0.58, the IC50 (S-Trityl-L-cysteine) was 0.521 µM and the AUC (XL-184) was 0.865. The IC50 (XL-184) was 3.96 µM, the AUC (Gefitinib) was 0.986 and the IC50 (Gefitinib) was greater than 0.5 µM. It also gave an AUC (NU-7441) of 0.986 and an IC50 (NU-7441) greater than 2 µM.

Work on OMC-1 (cervix, adherent) yielded an AUC (QL-XI-92) of 0.983, an IC50 (QL-XI-92) greater than 10.2 µM and an AUC (WHI-P97) of 0.969. The IC50 (WHI-P97) was greater than 10.2 µM, the AUC (EHT 1864) was 0.97 and the IC50 (EHT 1864) was greater than 10 µM. It also gave an AUC (AG-014699) of 0.988, an IC50 (AG-014699) greater than 5 µM and an AUC (Vinorelbine) of 0.967. It also gave an IC50 (Vinorelbine) greater than 0.064 µM, an AUC (Phenformin) of 0.521 and an IC50 (Phenformin) of 285 µM. The AUC (S-Trityl-L-cysteine) was 0.961, the IC50 (S-Trityl-L-cysteine) was greater than 5.12 µM and the AUC (XL-184) was 0.94. The IC50 (XL-184) was greater than 5.12 µM, the AUC (Gefitinib) was 0.955 and the IC50 (Gefitinib) was greater than 0.5 µM. It also gave an AUC (NU-7441) of 0.976 and an IC50 (NU-7441) greater than 2 µM.

In the case of “P31-FUJ (acute myeloid leukaemia, suspension)”, the AUC (QL-XI-92) is reported as 0.995, the IC50 (QL-XI-92) is reported as greater than 10.2 µM and the AUC (WHI-P97) is reported as 0.993. It also gave an IC50 (WHI-P97) greater than 10.2 µM, an AUC (EHT 1864) of 0.971 and an IC50 (EHT 1864) greater than 10 µM. It also gave an AUC (AG-014699) of 0.989, an IC50 (AG-014699) greater than 5 µM and an AUC (Vinorelbine) of 0.995. The IC50 (Vinorelbine) was greater than 0.064 µM, the AUC (Phenformin) was 0.854 and the IC50 (Phenformin) was 2050 µM. It also gave an AUC (S-Trityl-L-cysteine) of 0.996, an IC50 (S-Trityl-L-cysteine) greater than 5.12 µM and an AUC (XL-184) of 0.994. The IC50 (XL-184) was greater than 5.12 µM, the AUC (Gefitinib) was 0.992 and the IC50 (Gefitinib) was greater than 0.5 µM. It also gave an AUC (NU-7441) of 0.995 and an IC50 (NU-7441) greater than 2 µM.

Reference: the supplement of paper PMC4967469
